Assay results published in patent US20130156791A1, “METHODS AND PHARMACEUTICAL COMPOSITIONS FOR THE TREATMENT OF HIV-1 INFECTIONS” (priority 2010, published 2013).

System: endogenous HIV-1 from HAART-treated patients with undetectable viremia
Type: cell-based
Conditions: PBMCs from HAART-treated patients; 1, 3 and 7 days (Fig. 6c)

**Q.** How did the “viral propagation of tritherapy-selected viruses ex vivo” value turn out when `Nc1ncnc2c1ncn2[C@@H](C=O)O[C@@H](C=O)COP(=O)(O)OP(=O)(O)OP(=O)(O)O` [OxATP, oxidized ATP] was run?
**A.** reduces viral propagation

**Q.** `Cc1nc(N=Nc2ccc(S(=O)(=O)O)cc2S(=O)(=O)O)c(COP(=O)(O)O)c(C=O)c1O` [PPADS] was tested. Which “viral propagation of tritherapy-selected viruses ex vivo” value did it give?
**A.** reduces viral propagation

**Q.** `Cc1ccc(C(=O)Nc2ccc(S(=O)(=O)O)c3cc(S(=O)(=O)O)cc(S(=O)(=O)O)c23)cc1NC(=O)c1cccc(NC(=O)Nc2cccc(C(=O)Nc3cc(C(=O)Nc4ccc(S(=O)(=O)O)c5cc(S(=O)(=O)O)cc(S(=O)(=O)O)c45)ccc3C)c2)c1` [suramin] was tested. Which “viral propagation of tritherapy-selected viruses ex vivo” value did it give?
**A.** reduces viral propagation
